Assay results reported in the supplement of paper PMC7826260.
This is one part of the list. The data describe in vitro nicking of single-stranded DNA by Rep domains (3 µM enzyme, 1 h, 37 °C); shown is the middle of each 90-letter strand. Uncut reads are compared with the no-enzyme pool on a log2 scale; uncut sequences lie near 0, cut ones below; no hit call is given. The scaling is to total reads, so uncut sequences can rise above 0 when many others are cut.

What was measured:
Assay in all cases: uncleaved DNA left, log2 of reads against the no-enzyme library (log2 ratio); higher = less cleavage (more negative = more Rep cleavage of the k-mer); sequences stand for … in CTCGTCCG…ACCGGAGA
[1] = tested on: T1, Rep nickase domain of Muscovy duck circovirus
T1 sequence (protein, residues 1-111, tag omitted): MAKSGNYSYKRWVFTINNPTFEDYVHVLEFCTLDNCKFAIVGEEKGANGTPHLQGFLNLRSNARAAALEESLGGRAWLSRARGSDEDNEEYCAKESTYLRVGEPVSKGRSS
Description: (§1)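 A pool of 90-nt single-stranded DNAs with seven random bases just before the constant AC of the nick site (name = the seven bases) was cut by 3 µM recombinant His6-SUMO-tagged Rep nickase domain (300 nM DNA, 50 mM HEPES pH 8.0, 50 mM NaCl, 1 mM MnCl2, 1 h, 37 °C, three replicates). Uncut DNA was amplified and sequenced.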

[2] = tested on: T2, Rep nickase domain of banana bunchy top virus
T2 sequence (protein, residues 1-94, tag omitted): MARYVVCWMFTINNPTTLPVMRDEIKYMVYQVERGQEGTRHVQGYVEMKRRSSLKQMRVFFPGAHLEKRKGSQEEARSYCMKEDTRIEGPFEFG
Description: as §1

[3] = tested on: T3, Rep nickase domain of cabbage leaf curl virus
T3 sequence (protein, residues 1-116, tag omitted): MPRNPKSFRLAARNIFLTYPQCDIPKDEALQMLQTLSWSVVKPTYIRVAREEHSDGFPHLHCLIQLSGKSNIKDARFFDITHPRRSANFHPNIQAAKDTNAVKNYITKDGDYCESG
Description: as §1

[4] = tested on: T4, Rep nickase domain of chickpea chlorotic dwarf virus
T4 sequence (protein, residues 1-124, tag omitted): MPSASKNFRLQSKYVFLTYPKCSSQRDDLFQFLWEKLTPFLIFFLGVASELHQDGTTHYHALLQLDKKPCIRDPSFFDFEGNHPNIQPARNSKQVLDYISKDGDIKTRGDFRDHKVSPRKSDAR
Description: as §1

[5] = tested on: T5, Rep nickase domain of faba bean necrotic yellows virus
T5 sequence (protein, residues 1-98, tag omitted): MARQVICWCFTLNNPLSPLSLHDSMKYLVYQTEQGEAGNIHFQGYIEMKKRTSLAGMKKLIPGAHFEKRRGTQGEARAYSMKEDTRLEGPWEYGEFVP
Description: as §1

[6] = tested on: T6, Rep nickase domain of maize striate mosaic virus
T6 sequence (protein, residues 1-117, tag omitted): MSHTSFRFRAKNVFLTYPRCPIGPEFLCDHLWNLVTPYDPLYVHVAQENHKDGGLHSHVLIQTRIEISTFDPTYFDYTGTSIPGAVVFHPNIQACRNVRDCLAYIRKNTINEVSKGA
Description: as §1

[7] = tested on: T7, Rep nickase domain of porcine circovirus 2
T7 sequence (protein, residues 2-116, tag omitted): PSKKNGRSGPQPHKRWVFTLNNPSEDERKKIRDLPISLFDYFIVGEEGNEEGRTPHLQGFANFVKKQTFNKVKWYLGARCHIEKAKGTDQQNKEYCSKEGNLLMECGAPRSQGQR
Description: as §1

[8] = tested on: T8, Rep nickase domain of tomato golden mosaic virus
T8 sequence (protein, residues 1-124, tag omitted): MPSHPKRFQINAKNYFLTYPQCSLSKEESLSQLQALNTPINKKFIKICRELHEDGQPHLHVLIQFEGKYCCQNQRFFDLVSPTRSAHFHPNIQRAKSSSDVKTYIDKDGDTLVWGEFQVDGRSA
Description: as §1

[9] = tested on: T9, Rep nickase domain of tomato yellow leaf curl virus
T9 sequence (protein, residues 1-136, tag omitted): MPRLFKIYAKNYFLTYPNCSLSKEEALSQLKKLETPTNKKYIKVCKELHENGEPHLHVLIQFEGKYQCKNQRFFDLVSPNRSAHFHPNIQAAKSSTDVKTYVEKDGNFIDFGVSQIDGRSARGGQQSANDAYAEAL
Description: as §1

[10] = tested on: T10, Rep nickase domain of wheat dwarf virus
T10 sequence (protein, residues 1-137, tag omitted): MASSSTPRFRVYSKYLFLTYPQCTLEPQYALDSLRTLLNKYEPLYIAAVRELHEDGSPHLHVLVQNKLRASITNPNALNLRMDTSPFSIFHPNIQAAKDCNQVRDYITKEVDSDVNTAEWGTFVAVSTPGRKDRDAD
Description: as §1

Row | Sequence | uncleaved DNA left (log2) [1] | uncleaved DNA left (log2) [2] | uncleaved DNA left (log2) [3] | uncleaved DNA left (log2) [4] | uncleaved DNA left (log2) [5] | uncleaved DNA left (log2) [6] | uncleaved DNA left (log2) [7] | uncleaved DNA left (log2) [8] | uncleaved DNA left (log2) [9] | uncleaved DNA left (log2) [10]
1 | CATGAAA | 0.0532 | 0.0775 | -0.0657 | -0.494 | 0.0373 | -0.851 | 0.16 | 0.0993 | 0.00945 | 0.0576
2 | TTCAAAA | 0.128 | -0.0437 | 0.211 | 0.312 | 0.00705 | -0.144 | -0.0677 | 0.134 | -0.00807 | 0.0963
3 | ATCACAT | 0.071 | 0.0433 | 0.0945 | 0.0271 | 0.0583 | -0.307 | 0.136 | 0.00262 | 0.0613 | 0.168
4 | CGCGCCG | 0.0628 | -0.132 | -0.563 | -0.376 | -0.044 | -0.561 | 0.0845 | -0.203 | -0.134 | -0.0921
5 | CGTCTCC | -0.0517 | -0.0198 | 0.143 | 0.114 | -0.0664 | 1.17 | 0.0682 | -0.0701 | 0.0557 | -0.00515
6 | CAACCCT | -0.19 | -0.0591 | -1.17 | -2.75 | 0.156 | -0.599 | -1.63 | -0.0412 | 0.0622 | -0.192
7 | ACCAGTT | 0.06 | -0.022 | -0.326 | -1.93 | 0.154 | -1.04 | -0.122 | -0.04 | -0.0701 | -0.0597
8 | TCACTAG | -0.104 | -0.0449 | -0.67 | -0.832 | 0.0835 | -1.37 | 0.155 | -0.0347 | 0.0401 | -0.103
